Reference: PubChem BioAssay AID938 (National Center for Advancing Translational Sciences (NCATS), 2007)
The whole screen tested about 73,000 compounds, of which about 1,800 (2.5%) were called active. Inconclusive results, whose numbers are uncertain, are shown with a selection of clear calls. Calls come from the whole dose curve; as a rule, active = well fitted activation curve with a large enough effect; inconclusive = small, poorly fitted or top-dose-only effect; inactive = no such curve, though single readings can be large or run the other way. No potency is given beside an inconclusive call; the fits are too rough.

assay: qHTS Assay for Agonists of the Thyroid Stimulating Hormone Receptor: Activators of Intracellular cAMP Concentrations in Parental HEK 293; conditions: parental HEK293 CNG cAMP sensor, membrane potential fluorescence; series mostly up to 57.1 µM; note: nearly all actives have a fitted effect of over 55% in size
In short: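 Parental HEK 293 cells stably expressing a cAMP-gated CNG channel were loaded with membrane potential dye containing 100 uM RO 20-1724 for 60 min. Compound added for 30 min; depolarization read as fluorescence intensity at 590 nm.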
Potency is the fitted concentration of half-maximal effect; tags give direction and shape of the fitted curve.

| SMILES | Potency |
| --- | --- |
| OCc1nc2ccccc2n1CCCOc1ccc(Br)cc1 | inactive |
| CCOC(=O)C1C(=O)Oc2ccc3ccccc3c2C1C1CCOC1=O (configuration not stated) | inconclusive [activator, single point] |
| O=C(Cn1c(=O)n(Cc2ccco2)c(=O)c2c3c(sc21)CCCC3)Nc1ccccc1 | inconclusive [activator, single point] |
| CCOc1cc(S(=O)(=O)N2CCCCC2)ccc1Cl | inconclusive [activator, single point] |
| COc1ccc(OC)c(C2=C[N+](=O)C(C)(C)C(C)(C)N2[O-])c1 | inactive |
| CCOc1ccc2nc(NC(=O)C(CCSC)NS(=O)(=O)c3cccs3)sc2c1 (configuration not stated) | inactive |
| COC(=O)c1ccc(C(NC(=O)c2ccco2)[C@]2(C)C[C@H]2C2CCCCC2)cc1 (some centres not stated) | inconclusive [activator, partial curve] |
| N[C@@H](C(=O)O)[C@@H]1C[C@H]1C(=O)O | inactive |
| COc1ncc2nc(-c3ccc(F)cc3)c(=O)n(C)c2n1 | inactive |
| CC(C)NC(=O)N1CC2(CCN(C(=O)c3cccn3C)CC2)C1 | inconclusive [activator, single point] |
| CCN1CCN(c2nc3sc4c(c3c3ncnn23)CC(C)CC4)CC1 (configuration not stated) | inconclusive [activator, partial curve] |
| O=C(Nc1ccccc1Cl)c1ccc2c(c1)N(Cc1ccc(F)cc1)C(=O)CS2=O (configuration not stated) | inconclusive [activator, partial curve] |
| O=C(CSc1nnnn1C1CCCC1)c1ccc2c(c1)OCCO2 | inconclusive [activator, partial curve] |
| CCOC(=O)N1CCN(CC(O)c2ccc3cc[nH]c3c2)CC1 (configuration not stated) | inconclusive [activator, single point] |
| COc1ccc(OC(C)C(=O)N2CCc3ccccc3C2)cc1 (configuration not stated) | inactive |
| Cc1csc(NC(=O)c2cc3c(s2)CCC3)n1 | inactive |
| O=S(=O)(c1ccc2c(c1)OCCO2)N1CCN(c2cccc(Cl)c2)CC1 | inactive |
| Cc1nn(-c2ccccc2)c2nc(-c3ccncc3)cc(C(=O)NCc3ccco3)c12 | inconclusive [activator, partial curve] |
| Cc1ccc(N2CCN(C(=O)c3ccccc3F)CC2)c(C)c1 | inconclusive [activator, single point] |
| CCCc1[nH]nc2c1C1(CCOC1C)C(C#N)=C(N)O2 (configuration not stated) | inconclusive [activator, single point] |
| COc1cccc2cc(C(=O)C3=C(O)C(=O)N(CCCN4CCOCC4)C3c3ccncc3)oc12 (configuration not stated) | inconclusive [activator, single point] |
| CC(=O)c1cccc(S(=O)(=O)NCC(c2ccco2)N2CCCCC2)c1 (configuration not stated) | inactive |
| Cc1ccc(-c2nc(-c3ccccc3)no2)c(Cl)c1 | inconclusive [activator, single point] |
| CCOC(=O)Cc1csc(NC(=O)c2cccc(N3C(=O)CCC3=O)c2)n1 | inconclusive [activator, partial curve] |

| SMILES | Potency |
| --- | --- |
| COC(=O)N1CCC2(CC1)CN(C(=O)Nc1ccccc1)C2 | inactive |
| COC(=O)Cc1c(C)nc2nc(-c3ccccc3)[nH]n2c1=O | inactive |
| CN(Cc1ccccc1)c1nc2c(c(=O)[nH]c(=O)n2C)n1CCSc1nc2ccccc2[nH]1 | inconclusive [activator, single point] |
| CNC(=O)CSc1nnc(COc2ccc(Cl)cc2)n1CCOC | inconclusive [activator, single point] |
| O=C1OCCC1Sc1nnc(-c2ccc(Br)cc2)o1 (configuration not stated) | inactive |
| COC(=O)Cc1ccc(NC(=O)c2ccc(Br)o2)cc1 | inactive |
| Clc1ccccc1-c1cc(NCc2ccccc2)ncn1 | inconclusive [activator, partial curve] |
| O=C(CSc1nnc(Cc2cccs2)n1-c1ccccc1)NC1CCCCC1 | inconclusive [activator, partial curve] |
| Cc1ccccc1-c1nc(CS(=O)CC(=O)NCc2ccccc2)c(C)o1 (configuration not stated) | inconclusive [activator, full curve] |
| Cc1cc(NC(=O)c2cn(C3CCCCC3)c(=O)c3c2c2ccccc2n3C)no1 | inconclusive [activator, partial curve] |
| O=C(CCSc1ccc(Cl)cc1)N1CCN(c2ncccn2)CC1 | inconclusive [activator, partial curve] |
| Cc1nc2ncnn2c(C)c1CCC(=O)NCc1ccco1 | inactive |
| Cc1ccc2[nH]c(=O)c(C(c3nnnn3C3CCCC3)N(Cc3cccnc3)Cc3ccco3)cc2c1 (configuration not stated) | inconclusive [activator, single point] |
| Cn1c(=O)n(CCc2ccccc2)c(=O)c2c1nc1n2CCCN1c1ccccc1 | inconclusive [activator, partial curve] |
| CCOC(=O)C1=C(N)Oc2cc(O)ccc2C1c1cccnc1 (configuration not stated) | inconclusive [activator, partial curve] |
| Cc1ccc(S(=O)(=O)N(C)Cc2ccc(-c3nnco3)cc2)cc1 | active: 25.1 µM |
| CCCC(c1nnnn1Cc1ccc(OC)cc1)N1CCN(c2ccccc2OC)CC1 (configuration not stated) | active: 25.1 µM |
| CCC[C@@H]1C[C@@]1(CCC)C(NC(=O)c1ccco1)c1ccc(Cl)cc1 (some centres not stated) | active: 10 µM |
| c1ccc(Cn2nnc3c(N4CCc5ccccc5C4)ncnc32)cc1 | inconclusive [activator, partial curve] |
| Cn1c(C(=O)N2CCc3ccccc3C2)cc2c(=O)n3ccccc3nc21 | inactive |
| CCOc1cc(C)c(C(C)C)cc1S(=O)(=O)N1CCOCC1 | inconclusive [activator, single point] |
| COc1ccc(-n2nnnc2SCC(=O)c2cccc(OC)c2)cc1 | inconclusive [activator, single point] |
| COc1ccc(-n2c(=O)c(C)nc3cnc(Nc4cccc(OC)c4)nc32)cc1 | inconclusive [activator, single point] |
